Experimental data taken from publication PMC4336329 (PLoS ONE, 2015).
In all, about 310,000 compounds went through this assay and about 2,200 (0.71%) showed an effect of 50% or more. The effect is printed as a negative number. The list shows a part of the results.

What follows are compounds tested against human ether-à-go-go-related gene (hERG) potassium channel (human, UniProt Q12809) (assay: primary screen, population patch clamp on CHO cells stably expressing hERG).
Chain of human ether-à-go-go-related gene (hERG) potassium channel (Q12809 whole entry, looked up): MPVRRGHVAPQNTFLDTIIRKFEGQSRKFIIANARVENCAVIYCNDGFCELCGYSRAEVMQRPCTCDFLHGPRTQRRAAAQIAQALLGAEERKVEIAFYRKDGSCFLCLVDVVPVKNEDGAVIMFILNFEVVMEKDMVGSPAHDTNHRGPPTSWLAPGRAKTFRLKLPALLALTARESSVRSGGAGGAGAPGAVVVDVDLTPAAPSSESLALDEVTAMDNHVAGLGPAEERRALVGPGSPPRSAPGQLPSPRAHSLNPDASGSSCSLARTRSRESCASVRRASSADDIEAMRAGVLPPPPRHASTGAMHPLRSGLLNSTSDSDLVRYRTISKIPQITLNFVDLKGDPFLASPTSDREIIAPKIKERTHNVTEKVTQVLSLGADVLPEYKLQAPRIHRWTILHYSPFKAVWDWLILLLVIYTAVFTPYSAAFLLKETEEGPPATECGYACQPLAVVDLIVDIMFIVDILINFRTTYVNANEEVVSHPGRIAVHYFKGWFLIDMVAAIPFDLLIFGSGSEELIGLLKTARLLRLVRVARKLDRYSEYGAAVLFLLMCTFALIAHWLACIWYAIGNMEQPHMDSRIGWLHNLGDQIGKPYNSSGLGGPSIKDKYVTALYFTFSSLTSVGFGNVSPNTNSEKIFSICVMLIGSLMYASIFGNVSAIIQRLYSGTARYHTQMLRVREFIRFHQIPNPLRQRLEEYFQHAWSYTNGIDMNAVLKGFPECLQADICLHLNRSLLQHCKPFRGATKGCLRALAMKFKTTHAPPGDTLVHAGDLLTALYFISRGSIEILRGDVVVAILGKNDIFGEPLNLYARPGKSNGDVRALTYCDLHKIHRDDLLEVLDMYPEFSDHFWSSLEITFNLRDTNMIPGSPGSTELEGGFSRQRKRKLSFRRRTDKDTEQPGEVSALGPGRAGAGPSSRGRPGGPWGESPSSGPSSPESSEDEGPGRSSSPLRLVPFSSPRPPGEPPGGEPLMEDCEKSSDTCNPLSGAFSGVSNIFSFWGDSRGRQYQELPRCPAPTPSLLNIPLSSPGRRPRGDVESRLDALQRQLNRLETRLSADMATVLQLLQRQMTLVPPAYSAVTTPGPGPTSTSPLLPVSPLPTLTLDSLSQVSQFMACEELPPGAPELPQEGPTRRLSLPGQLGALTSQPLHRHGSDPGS

Row | Compound | hERG current change (%, negative = inhibition) at 1uM [%]
1 | O=C(C[n+]1ccccc1)N/N=C/c1ccc(F)cc1.[Cl-] | 15.9
2 | c1ccc(Nc2ccnc(Nc3ccccc3)n2)cc1 | 10.9
3 | COc1ccc(Cl)cc1NC(=O)CN(C)C(=O)c1sc2ccccc2c1Cl | 9.53
4 | Cc1nn(S(=O)(=O)c2ccccc2)c(C)c1Sc1ccc([N+](=O)[O-])cc1 | 5.98
5 | CC(=O)Nc1cccc(C(=O)OC(C(=O)c2ccc(C)cc2)c2ccccc2)c1 (centres unmarked) | 6.33
6 | CCC(=NCCc1ccccc1)c1c(O)[nH]c(=O)[nH]c1=O | 14.1
7 | O=C(NCCc1ccccn1)C1CCN(S(=O)(=O)c2ccc(Cl)cc2)CC1 | -1.27
8 | Nc1nc(Cl)cc(N2CCC(c3cc(-c4ccc(Cl)cc4)n[nH]3)CC2)n1 | 15.8
9 | CCOC(=O)C1CCN(c2c(NCCN3CCCCC3C)c(=O)c2=O)CC1 (centres unmarked) | -17.5
10 | O=C(Nc1cccnc1Cl)c1noc2c1CCc1ccccc1-2 | 12.4
11 | O=C(NC(=S)Nc1ccc(NC(=O)c2cccs2)cc1)c1ccc([N+](=O)[O-])cc1 | 2.85
12 | O=C1CC(Cc2ccc(Br)cc2)C(=O)N1c1ccccc1 (centres unmarked) | 9.69
13 | CC1CN(C(=O)Nc2ccccc2)c2ccccc2-[n+]2ccsc21.[Br-] (centres unmarked) | 7.17
14 | COc1ccc(C(=O)N2CCN(CCCc3ccccc3)CC2)cc1OC.O=C(O)C(=O)O | -61.8
15 | O=C(Cc1ccccc1)NC(NNc1ccccc1)(C(F)(F)F)C(F)(F)F | 9.32
16 | COc1cccc(NC(=O)CCCN2C(=O)C3CC=CCC3C2=O)c1 (centres unmarked) | 9.71
17 | COc1cc(OC)cc(C(=O)NC2CCCN(Cc3ccc(Cl)cc3)C2)c1 (centres unmarked) | 15
18 | COc1ccc(-c2ncncc2-c2csc(C)n2)c(O)c1OC | 2.46
19 | O=C(c1c(F)cccc1F)N1CCC(n2nnc3cc(C(F)(F)F)ccc32)CC1 | 5.01
20 | Cc1cc(C)c(S(=O)(=O)Cc2ccccc2)c(Cl)n1 | 9.46
21 | C=CCN(CC=C)C(=O)COn1nnc2ccc(S(=O)(=O)N3CCOCC3)cc21 | 5.05
22 | S=c1[nH]nc(Cc2noc3ccccc23)n1-c1ccccc1 | 15.2

Row | Compound | hERG current change (%, negative = inhibition) at 1uM [%]
23 | Cc1ccc2occ(/C=N/NC(=O)[C@@H](N)Cc3ccccc3)c(=O)c2c1.Cl | 4.83
24 | COC(=O)c1ccc(NC(=O)CN(C)Cc2cccc(F)c2)cc1 | 8.68
25 | CCOC(=O)c1c(C)[nH]c(C(=O)OCC(=O)Nc2sccc2C(N)=O)c1C | 13
26 | O=C(N/N=C/c1ccccc1)c1ccc(CN2C(=O)c3cccc4cccc2c34)cc1 | -0.233
27 | O=C(O)C1CC=CCC1C(=O)Nc1ccc(F)c(F)c1 (centres unmarked) | 25.3
28 | Cc1cccc(C(OC(=O)c2ccco2)C(=O)NCc2ccccc2)n1 (centres unmarked) | -5.65
29 | COC(=O)CCc1sc(NC2CCCCC2)nc1-c1ccc(OC)cc1 | 20.6
30 | Cc1ccc(-c2nc(CCN3C(=O)c4ccccc4C3=O)cs2)cc1 | 6.2
31 | CCOc1ccccc1Nc1nnc(SCC(=O)Nc2cccc(S(=O)(=O)NC3=NCCCCC3)c2)s1 | 6.99
32 | O=c1c2[nH]c3ccc(F)cc3c2nc2n1CCCS2 | 6.32
33 | CN(c1ccccc1)S(=O)(=O)c1cccc(C(=O)NC2CCCCC2)c1 | 8.28
34 | CCOC(=O)c1c(-c2ccc(OCC)cc2)csc1NC(=O)CCN1C(=O)c2ccccc2C1=O | 18.2
35 | O=C(COC(=O)c1ccc(Cl)c(S(=O)(=O)N2CCCCC2)c1)NCC1CCCCC1 | -6.25
36 | CCn1c(SCC(=O)NCc2ccco2)nc2c1c(=O)n(C)c(=O)n2C | 17.1
37 | COc1cccc(C=NCCCN=Cc2cccc(OC)c2O)c1O | 11.2
38 | CCN(C(=O)CSc1nc2ccccc2o1)c1c(N)n(Cc2ccccc2)c(=O)[nH]c1=O | -12.3
39 | Cc1ccc(N2C(=O)CCSC23C(=O)Nc2ccccc23)cc1 (centres unmarked) | -0.447
40 | O=C(Cn1nnc(-c2ccccc2NC(=O)c2cccs2)n1)Nc1ccccc1 | 6.64
41 | C/C(=N/NS(=O)(=O)c1ccc(Cl)cc1)c1cccc(NC(=O)c2ccncc2)c1 | 2.59
42 | CC(C)/C=C/CN1CCCC(N2CCN(c3cccc(Cl)c3)CC2)C1 (centres unmarked) | -5.91
43 | Cc1c(N2C(=O)/C(=C\c3ccccc3O)SC2=S)c(=O)n(-c2ccccc2)n1C | 25.3
44 | O=C(NCc1ccccc1)C1C(=O)N(Cc2ccccc2)C(=O)C1C1(O)CCCC1 (centres unmarked) | 14.8

Row | Compound | hERG current change (%, negative = inhibition) at 1uM [%]
45 | COc1ccc(S(=O)(=O)N2CCC(C(=O)N[C@@H](C)C(=O)NCc3ccccc3OC)CC2)cc1 | 6.37
46 | C=CCN1C(=O)C(CC(=O)Nc2ccccc2)N(Cc2ccccn2)C1=S (centres unmarked) | 1.26
47 | CC1CCc2nc(NC(=O)CN3CCN(c4ccccc4)CC3)sc2C1 (centres unmarked) | -1.35
48 | CCOc1ccccc1OCCC(=O)OCC(=O)Nc1c(C)nn(-c2ccccc2)c1C | 8.83
49 | Cc1nc(C)c(C(=O)N(c2ccccc2F)C(C(=O)NCC2CCCO2)c2ccccc2)s1 (centres unmarked) | 9.5
50 | COc1ccccc1-c1cn[nH]c1-c1ccc(OCc2ccc(F)cc2)cc1O | 9.42
51 | O=[N+]([O-])c1ccc(-c2c[nH]c(=S)[nH]2)cc1 | 8.17
52 | CCOc1ccc(/C=C/C(=O)Nc2ccc(OC)cc2[N+](=O)[O-])cc1 | 6.49
53 | Cn1c(=O)c2c(nc(Cl)n2CC(=O)NC2(C#N)CCCCC2)n(C)c1=O | 8.19
54 | O=C(NC(=S)NCCC1=CCCCC1)c1ccco1 | 16.4
55 | COc1ccc2c(C)c(CCC(=O)NC3CC3)c(=O)oc2c1C | 11
56 | O=C(CSc1ncccn1)N/N=C/c1ccc(OC2CSC2)cc1 | 2.44
57 | CSc1cccc(CN2CCC(Oc3cccc(C(=O)N4CCCC4)c3)CC2)c1 | 0.494
58 | Cc1cccc(N2C(=O)C(Oc3ccc(Cl)cc3Cl)C2C=O)c1C (centres unmarked) | -1.5
59 | O=C(C1=C[C@@H](c2ccc3c(c2)OCO3)C[C@@H](OCCCCO)O1)N1CCOCC1 | 17.1
60 | CC(NS(=O)(=O)c1ccc(Br)s1)c1ccccc1 (centres unmarked) | 13.1
61 | CCOC(=O)N1CCN(C(=O)CSc2nc(CC)nc3c2c(=O)n(C)c(=O)n3C)CC1 | 9.94
62 | CN(C)S(=O)(=O)c1ccc(Cl)c(C(=O)NCc2ccco2)c1 | 11.7
63 | Clc1ccccc1/C=N/c1cc(-c2ccccc2)nn1-c1ccccc1 | 13.2
64 | CCN(CC)CCN(C(=O)c1ccc(N2C(=O)CCC2=O)cc1)c1nc2cc3c(cc2s1)OCCO3.Cl | 6.37
65 | O=C(Nc1ncc2c(n1)-c1ccccc1OC2)c1ccc(Cl)cc1Cl | 8.68
66 | COc1ccccc1C(c1c(N)n(C)c(=O)n(C)c1=O)C(C)[N+](=O)[O-] (centres unmarked) | 9.39

Row | Compound | hERG current change (%, negative = inhibition) at 1uM [%]
67 | Cc1nc2ccc(NC(=O)COc3ccccc3F)cc2s1 | 14.1
68 | CC(=O)NN1C(=O)c2ccccc2NC1c1ccccc1O (centres unmarked) | 13.1
69 | CCN(CC)C(=O)c1ncn(Cc2ccccc2)c1C(=O)N(CC)CC | 16.1
70 | Fc1ccc(C2=CC(c3cccs3)n3nnnc3N2)cc1 (centres unmarked) | 9.9
71 | COc1ncccc1-c1nnn(-c2ccc(Cl)c(Cl)c2)n1 | 11.9
72 | O=C(Oc1ccc(N2C(=O)CCC2=O)cc1)c1ccco1 | 2.39
73 | CSc1cccc(NC(=O)CNC(=O)c2ccc3c(c2)OCO3)c1 | -2.54
74 | COc1ccccc1NC(=O)N1CCCC(CNC(=O)c2ccccc2Cl)C1 (centres unmarked) | 15.4
75 | c1ccc(Cn2nnnc2C(c2cccs2)N2CCSCC2)cc1 (centres unmarked) | 6.95
76 | O=c1[nH]nc(SCc2ccccc2)c(=O)[nH]1 | 6.14
77 | CS(=O)(=O)N(Cc1ccccc1)c1ccc(C(=O)Nc2ccc3c(c2)OCO3)cc1 | 0.276
78 | O=C(Cn1[nH]c(=O)c2ccccc2c1=O)OCC(=O)N(Cc1ccccc1)Cc1ccccc1 | 5.95
79 | Cc1ccc(C)c(OCc2cc(C(=O)NC(c3ccccn3)C(F)(F)F)no2)c1 (centres unmarked) | 12.9
80 | Cc1c(NC(NC(=O)CC(C)C)C(Cl)(Cl)Cl)c(=O)n(-c2ccccc2)n1C (centres unmarked) | 9.78
81 | O=C(Nc1nccs1)c1ccccc1[N+](=O)[O-] | 6.51
82 | COc1ccc(NC2CC(=O)N(c3cccc([N+](=O)[O-])c3)C2=O)cc1 (centres unmarked) | 1.88
83 | Cc1cc(C)n(C(=O)c2c([N+](=O)[O-])c(C)nn2C)n1 | 16.2
84 | COc1ccc(NC(=O)c2ccc(Cl)nc2)cc1S(=O)(=O)N1CCOCC1 | 10.2
85 | COC(=O)C1=C(N)Oc2cc(C)n(C)c(=O)c2C1c1ccc(Cl)c(Cl)c1 (centres unmarked) | 15.5
86 | O=C(NCc1ccco1)c1cccn2c(=O)c3sccc3nc12 | -9.54
